Measurements published in PMC3317836.
These are yes or no findings as the source states them, for the method shown. For part of these data: Binding seen in cells or lysates may run through a third protein. Some results given as binding are weak or reduced against the parent protein; the word gives no strength. For part of these data: Sequences can lack the tags named with a protein.

By UniProt entry, the sequences of proteins in these tests, tags left out. Where a name states a change or a piece, a line headed by the entry shows the natural chain unless it says otherwise. Chains listed by the source or under a name are the forms on record and can include a tag or linker. Residues count along the entry.
VSV-plexinB1 (wild type) (O43157, residues 20-2135): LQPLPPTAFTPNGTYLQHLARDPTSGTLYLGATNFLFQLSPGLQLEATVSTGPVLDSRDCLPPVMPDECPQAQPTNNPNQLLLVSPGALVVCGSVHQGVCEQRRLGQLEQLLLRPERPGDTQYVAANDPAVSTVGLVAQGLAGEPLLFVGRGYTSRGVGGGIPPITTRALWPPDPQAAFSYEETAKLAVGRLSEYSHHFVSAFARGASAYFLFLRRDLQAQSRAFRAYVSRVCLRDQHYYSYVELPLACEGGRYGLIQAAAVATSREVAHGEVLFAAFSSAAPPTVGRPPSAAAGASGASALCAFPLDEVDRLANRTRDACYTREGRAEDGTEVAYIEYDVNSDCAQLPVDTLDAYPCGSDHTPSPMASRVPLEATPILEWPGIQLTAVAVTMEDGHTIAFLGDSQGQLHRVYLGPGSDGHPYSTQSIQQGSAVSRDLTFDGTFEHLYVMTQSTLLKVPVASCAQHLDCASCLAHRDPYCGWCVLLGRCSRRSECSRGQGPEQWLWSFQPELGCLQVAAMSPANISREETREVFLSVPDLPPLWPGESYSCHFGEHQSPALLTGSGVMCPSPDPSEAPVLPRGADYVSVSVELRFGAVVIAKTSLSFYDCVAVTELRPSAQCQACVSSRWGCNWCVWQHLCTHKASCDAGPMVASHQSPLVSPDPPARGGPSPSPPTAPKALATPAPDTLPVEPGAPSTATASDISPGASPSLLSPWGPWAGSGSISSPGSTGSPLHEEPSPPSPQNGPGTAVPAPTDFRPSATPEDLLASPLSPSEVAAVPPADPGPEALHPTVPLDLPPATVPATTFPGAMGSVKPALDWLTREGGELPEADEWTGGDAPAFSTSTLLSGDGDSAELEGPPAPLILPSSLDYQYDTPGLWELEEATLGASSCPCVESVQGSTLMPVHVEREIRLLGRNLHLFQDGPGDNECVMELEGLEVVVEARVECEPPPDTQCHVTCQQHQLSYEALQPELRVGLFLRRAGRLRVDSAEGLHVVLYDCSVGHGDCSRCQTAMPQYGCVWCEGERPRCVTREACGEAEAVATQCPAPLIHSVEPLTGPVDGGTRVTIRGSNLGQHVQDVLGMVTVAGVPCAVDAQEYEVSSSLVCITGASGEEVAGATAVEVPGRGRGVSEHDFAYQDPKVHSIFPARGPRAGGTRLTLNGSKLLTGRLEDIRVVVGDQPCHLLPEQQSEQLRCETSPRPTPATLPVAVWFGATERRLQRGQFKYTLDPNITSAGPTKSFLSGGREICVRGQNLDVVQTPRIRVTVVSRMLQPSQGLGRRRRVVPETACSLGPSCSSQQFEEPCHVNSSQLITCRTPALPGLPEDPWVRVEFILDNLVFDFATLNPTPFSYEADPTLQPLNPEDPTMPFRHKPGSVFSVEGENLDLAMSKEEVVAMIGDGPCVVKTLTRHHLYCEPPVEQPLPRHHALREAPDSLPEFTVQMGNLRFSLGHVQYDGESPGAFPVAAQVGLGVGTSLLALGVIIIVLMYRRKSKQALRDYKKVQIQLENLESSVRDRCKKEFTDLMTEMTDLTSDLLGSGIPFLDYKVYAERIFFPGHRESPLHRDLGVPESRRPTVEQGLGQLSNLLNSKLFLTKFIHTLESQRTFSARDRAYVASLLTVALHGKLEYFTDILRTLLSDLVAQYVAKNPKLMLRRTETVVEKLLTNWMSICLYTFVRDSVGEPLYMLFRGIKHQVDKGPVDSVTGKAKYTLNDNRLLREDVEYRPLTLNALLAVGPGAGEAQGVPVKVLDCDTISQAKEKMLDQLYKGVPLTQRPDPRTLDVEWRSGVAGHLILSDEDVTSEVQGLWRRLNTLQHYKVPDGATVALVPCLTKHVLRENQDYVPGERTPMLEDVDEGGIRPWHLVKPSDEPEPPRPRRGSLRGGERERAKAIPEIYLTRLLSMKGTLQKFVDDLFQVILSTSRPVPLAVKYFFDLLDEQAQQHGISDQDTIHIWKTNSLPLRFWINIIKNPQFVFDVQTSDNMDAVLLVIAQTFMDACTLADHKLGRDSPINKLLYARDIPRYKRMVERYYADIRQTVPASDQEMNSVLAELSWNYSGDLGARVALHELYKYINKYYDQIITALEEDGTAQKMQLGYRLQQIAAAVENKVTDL
VSV-plexinB1 (L1815P) (O43157, form named): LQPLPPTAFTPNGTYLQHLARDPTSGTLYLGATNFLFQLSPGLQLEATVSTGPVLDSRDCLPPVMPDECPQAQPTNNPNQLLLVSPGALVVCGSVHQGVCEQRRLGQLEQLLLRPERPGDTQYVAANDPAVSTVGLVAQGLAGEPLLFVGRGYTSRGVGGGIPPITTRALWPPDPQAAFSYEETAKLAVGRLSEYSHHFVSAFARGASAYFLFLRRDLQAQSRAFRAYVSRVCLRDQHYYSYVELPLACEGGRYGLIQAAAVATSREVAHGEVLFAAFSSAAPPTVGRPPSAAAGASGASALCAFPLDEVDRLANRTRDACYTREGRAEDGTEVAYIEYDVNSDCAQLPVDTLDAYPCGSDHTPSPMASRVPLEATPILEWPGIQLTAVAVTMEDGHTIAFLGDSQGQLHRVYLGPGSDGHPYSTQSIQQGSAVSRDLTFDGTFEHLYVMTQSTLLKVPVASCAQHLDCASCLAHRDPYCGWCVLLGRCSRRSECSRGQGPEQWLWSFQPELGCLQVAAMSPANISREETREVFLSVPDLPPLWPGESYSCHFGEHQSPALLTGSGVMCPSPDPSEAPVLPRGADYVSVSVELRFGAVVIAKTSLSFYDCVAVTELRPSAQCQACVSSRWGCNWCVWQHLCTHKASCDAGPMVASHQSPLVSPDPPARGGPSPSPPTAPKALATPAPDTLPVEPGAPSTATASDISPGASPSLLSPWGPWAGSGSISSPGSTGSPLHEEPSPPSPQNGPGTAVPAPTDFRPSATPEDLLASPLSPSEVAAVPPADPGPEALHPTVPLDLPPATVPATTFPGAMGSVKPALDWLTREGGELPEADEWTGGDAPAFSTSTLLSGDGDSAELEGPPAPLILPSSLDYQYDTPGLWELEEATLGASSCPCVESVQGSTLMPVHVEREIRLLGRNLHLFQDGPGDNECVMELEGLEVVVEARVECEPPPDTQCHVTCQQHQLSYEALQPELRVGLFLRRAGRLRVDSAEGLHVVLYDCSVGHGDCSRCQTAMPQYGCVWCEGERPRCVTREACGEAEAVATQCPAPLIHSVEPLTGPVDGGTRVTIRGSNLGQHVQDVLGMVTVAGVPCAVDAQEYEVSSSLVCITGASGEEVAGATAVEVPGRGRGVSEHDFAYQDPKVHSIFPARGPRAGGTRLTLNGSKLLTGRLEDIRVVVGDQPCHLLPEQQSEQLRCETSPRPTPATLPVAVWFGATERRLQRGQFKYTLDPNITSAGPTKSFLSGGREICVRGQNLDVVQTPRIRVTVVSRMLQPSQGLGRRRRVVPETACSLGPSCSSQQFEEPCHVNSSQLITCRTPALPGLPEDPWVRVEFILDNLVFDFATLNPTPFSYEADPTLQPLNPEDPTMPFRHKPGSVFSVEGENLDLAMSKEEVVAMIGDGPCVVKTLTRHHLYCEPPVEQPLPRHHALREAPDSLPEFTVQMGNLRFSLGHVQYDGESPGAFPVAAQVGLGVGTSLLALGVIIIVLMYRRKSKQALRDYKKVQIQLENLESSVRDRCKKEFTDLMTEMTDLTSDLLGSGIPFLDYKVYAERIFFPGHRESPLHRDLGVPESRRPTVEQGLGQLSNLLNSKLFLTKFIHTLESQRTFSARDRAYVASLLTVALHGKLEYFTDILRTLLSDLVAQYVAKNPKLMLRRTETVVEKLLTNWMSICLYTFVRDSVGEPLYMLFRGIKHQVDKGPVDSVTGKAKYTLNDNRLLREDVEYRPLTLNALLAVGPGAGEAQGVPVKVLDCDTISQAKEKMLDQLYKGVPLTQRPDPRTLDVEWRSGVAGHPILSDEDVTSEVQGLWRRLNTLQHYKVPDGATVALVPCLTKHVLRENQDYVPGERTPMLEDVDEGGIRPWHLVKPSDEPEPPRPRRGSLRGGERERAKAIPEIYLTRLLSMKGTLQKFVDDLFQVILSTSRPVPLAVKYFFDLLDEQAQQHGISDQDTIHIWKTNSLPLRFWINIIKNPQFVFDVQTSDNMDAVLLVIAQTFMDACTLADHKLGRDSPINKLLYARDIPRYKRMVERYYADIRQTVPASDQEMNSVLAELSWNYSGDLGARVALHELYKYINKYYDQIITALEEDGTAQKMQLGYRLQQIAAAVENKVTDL
VSV-plexinB1 (T1697A) (O43157, form named): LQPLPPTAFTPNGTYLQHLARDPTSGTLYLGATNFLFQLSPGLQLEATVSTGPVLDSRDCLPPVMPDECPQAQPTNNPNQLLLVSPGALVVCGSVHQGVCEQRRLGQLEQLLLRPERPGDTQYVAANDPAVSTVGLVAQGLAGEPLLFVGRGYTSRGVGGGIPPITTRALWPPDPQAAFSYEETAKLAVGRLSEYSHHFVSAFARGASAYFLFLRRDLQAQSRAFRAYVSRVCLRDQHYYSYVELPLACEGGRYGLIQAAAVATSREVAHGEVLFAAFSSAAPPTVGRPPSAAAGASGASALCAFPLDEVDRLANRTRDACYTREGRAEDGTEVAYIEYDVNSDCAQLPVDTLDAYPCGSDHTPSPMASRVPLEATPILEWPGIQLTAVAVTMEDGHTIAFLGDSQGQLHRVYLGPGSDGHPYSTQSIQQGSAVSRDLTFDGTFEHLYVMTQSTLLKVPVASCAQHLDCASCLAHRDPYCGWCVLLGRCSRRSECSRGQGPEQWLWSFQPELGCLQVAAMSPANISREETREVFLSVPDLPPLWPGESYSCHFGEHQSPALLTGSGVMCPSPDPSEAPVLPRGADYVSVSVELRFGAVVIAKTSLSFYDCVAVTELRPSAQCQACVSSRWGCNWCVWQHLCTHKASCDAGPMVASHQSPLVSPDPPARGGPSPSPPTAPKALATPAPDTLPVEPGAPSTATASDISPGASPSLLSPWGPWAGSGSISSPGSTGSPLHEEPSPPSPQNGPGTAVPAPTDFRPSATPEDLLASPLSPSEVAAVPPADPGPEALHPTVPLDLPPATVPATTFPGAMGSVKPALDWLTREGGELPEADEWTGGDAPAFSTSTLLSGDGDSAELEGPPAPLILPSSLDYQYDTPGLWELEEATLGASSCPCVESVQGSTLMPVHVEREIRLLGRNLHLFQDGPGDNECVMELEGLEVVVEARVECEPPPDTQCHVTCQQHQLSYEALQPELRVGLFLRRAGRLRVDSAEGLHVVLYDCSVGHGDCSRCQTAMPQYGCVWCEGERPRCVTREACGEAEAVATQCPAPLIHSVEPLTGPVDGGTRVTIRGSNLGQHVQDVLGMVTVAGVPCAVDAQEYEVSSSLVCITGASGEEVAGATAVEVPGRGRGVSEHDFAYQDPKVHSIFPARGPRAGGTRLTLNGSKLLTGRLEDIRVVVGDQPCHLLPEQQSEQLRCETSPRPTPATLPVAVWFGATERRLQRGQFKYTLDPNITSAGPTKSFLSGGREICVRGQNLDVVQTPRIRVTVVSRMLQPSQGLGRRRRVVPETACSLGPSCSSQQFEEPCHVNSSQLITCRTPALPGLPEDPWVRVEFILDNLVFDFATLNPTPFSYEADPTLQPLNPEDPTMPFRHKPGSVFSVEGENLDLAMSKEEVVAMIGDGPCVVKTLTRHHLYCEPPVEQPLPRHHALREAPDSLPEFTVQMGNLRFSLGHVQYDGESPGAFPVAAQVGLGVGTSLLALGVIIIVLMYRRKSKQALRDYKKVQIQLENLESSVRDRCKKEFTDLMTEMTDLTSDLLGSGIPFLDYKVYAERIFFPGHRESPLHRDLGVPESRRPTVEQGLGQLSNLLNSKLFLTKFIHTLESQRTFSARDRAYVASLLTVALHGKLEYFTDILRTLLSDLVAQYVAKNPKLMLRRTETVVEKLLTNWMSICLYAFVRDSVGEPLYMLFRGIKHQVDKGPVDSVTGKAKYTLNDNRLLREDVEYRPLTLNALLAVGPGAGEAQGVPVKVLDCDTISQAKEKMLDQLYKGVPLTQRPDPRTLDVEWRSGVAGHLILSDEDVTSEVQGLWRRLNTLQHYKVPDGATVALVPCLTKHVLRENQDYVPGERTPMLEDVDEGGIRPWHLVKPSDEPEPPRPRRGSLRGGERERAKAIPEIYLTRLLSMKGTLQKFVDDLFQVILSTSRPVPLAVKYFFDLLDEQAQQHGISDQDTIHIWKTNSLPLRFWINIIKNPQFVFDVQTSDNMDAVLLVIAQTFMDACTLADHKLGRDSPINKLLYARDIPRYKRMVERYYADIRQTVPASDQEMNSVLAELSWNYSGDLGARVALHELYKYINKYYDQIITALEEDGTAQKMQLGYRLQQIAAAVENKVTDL

Tests used:
Sema4D-Fc = target: T1, Sema4D-Fc (UniProt Q92854); assay: co-IP; HEK293T cells cotransfected with VSV-plexinB1 (WT or mutant) and Sema4D-Fc; lysate immunoprecipitated with anti-Fc antibody, plexinB1 detected
T1 sequence: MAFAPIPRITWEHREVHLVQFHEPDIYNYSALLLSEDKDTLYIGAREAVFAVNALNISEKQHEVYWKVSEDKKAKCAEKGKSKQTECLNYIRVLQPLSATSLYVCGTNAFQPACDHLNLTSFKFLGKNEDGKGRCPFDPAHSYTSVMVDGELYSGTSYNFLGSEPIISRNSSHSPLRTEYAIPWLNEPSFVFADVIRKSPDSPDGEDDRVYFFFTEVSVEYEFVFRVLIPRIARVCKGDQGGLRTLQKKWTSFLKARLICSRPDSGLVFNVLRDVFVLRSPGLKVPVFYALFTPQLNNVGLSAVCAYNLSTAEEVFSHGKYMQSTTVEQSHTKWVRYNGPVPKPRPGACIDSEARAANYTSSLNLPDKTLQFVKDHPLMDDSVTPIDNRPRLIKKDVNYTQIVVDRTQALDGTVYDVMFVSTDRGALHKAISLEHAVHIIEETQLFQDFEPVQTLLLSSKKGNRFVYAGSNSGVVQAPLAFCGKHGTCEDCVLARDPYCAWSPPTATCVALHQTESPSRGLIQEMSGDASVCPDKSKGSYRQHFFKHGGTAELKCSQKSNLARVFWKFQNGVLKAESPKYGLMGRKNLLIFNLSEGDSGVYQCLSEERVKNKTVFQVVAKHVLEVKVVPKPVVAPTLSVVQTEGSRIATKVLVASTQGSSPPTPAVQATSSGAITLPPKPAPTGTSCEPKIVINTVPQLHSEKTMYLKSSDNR

VSV-plexinB1 (L1815P) [1] = target: VSV-plexinB1 (L1815P) (UniProt O43157); assay: co-IP; lysates of HEK293 cells co-expressing VSV-plexinB1 (WT or mutant) and PDZRhoGEF, ErbB2 or c-Met; 1 μg anti-VSV for 2 h at 4°C, Protein-G sepharose 2 h, washed 3 times, immunoblotting
VSV-plexinB1 (T1697A) [2] = target: VSV-plexinB1 (T1697A) (UniProt O43157); assay: as above
VSV-plexinB1 (T1795A) [3] = target: VSV-plexinB1 (T1795A) (UniProt O43157); assay: as above
VSV-plexinB1 (L1815P) [4] = target: VSV-plexinB1 (L1815P) (UniProt O43157); assay: in situ binding of an alkaline phosphatase fusion protein to transfected cells; COS-7 cells transfected with plexinB1 (WT or mutant) and RacL61 or vector, treated with HBAH containing 1,000 ng/ml Sema4D-AP for 90 min, washed, fixed, 65°C for 100 min, BCIP/NBT; bound alkaline phosphatase activity
VSV-plexinB1 (wild type) [5] = target: VSV-plexinB1 (wild type) (UniProt O43157); assay: as above
VSV-plexinB1 (T1697A) [6] = target: VSV-plexinB1 (T1697A) (UniProt O43157); assay: as above
VSV-plexinB1 (T1795A) [7] = target: VSV-plexinB1 (T1795A) (UniProt O43157); assay: as above
VSV-plexinB1 (wild type) [8] = target: VSV-plexinB1 (wild type) (UniProt O43157); assay: co-IP; lysates of HEK293 cells co-expressing VSV-plexinB1 (WT or mutant) and PDZRhoGEF, ErbB2 or c-Met; 1 μg anti-VSV for 2 h at 4°C, Protein-G sepharose 2 h, washed 3 times, immunoblotting

Row | Substance | binding (Sema4D-Fc) | binding (VSV-plexinB1 (L1815P) [1]) | binding (VSV-plexinB1 (T1697A) [2]) | binding (VSV-plexinB1 (T1795A) [3]) | other results
1 | VSV-plexinB1 (wild type) (from UniProt O43157 20-2135) (receptor) | binds | – | – | – | –
2 | VSV-plexinB1 (L1815P) (from UniProt O43157 20-2135) (receptor) | binds | – | – | – | –
3 | ErbB2 (from UniProt P04626 23-1255) (receptor) | – | binds | binds | binds | –
4 | c-Met (from UniProt P08581 25-1390) (receptor) | – | binds | binds | binds | –
5 | Sema4D-AP fusion protein (from UniProt Q92854 22-734) (ligand) | – | – | – | – | binding (VSV-plexinB1 (L1815P) [4]): binds; binding (VSV-plexinB1 (wild type) [5]): binds; binding (VSV-plexinB1 (T1697A) [6]): binds; binding (VSV-plexinB1 (T1795A) [7]): binds
6 | PDZRhoGEF (from UniProt O15085 1-1522) | – | binds | binds | binds | binding (VSV-plexinB1 (wild type) [8]): binds
7 | VSV-plexinB1 (T1697A) (from UniProt O43157 20-2135) (receptor) | binds | – | – | – | –
8 | VSV-plexinB1 (T1795A) (from UniProt O43157 20-2135) (receptor) | binds | – | – | – | –
